Measured values reported in PubChem BioAssay AID757 (NMMLSC, 2007).
Screen size: about 190,000 compounds; about 520 (0.27%) were called active. Inconclusive results, whose numbers are uncertain, are shown with a selection of clear calls.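 The calls were made as follows: active = GTP binding activity at least 20 points away from the 100% control level, either lower or higher; inconclusive = compound flagged as likely green fluorescent, judged across all proteins; inactive = the rest.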

molecular target: Ras-related C3 botulinum toxin substrate 1 (Homo sapiens) (UniProt P63000); assay: wildtype Rac1 GTP binding modulators, primary screen, biochemical, GST-Rac1 beads, flow cytometry, multiplex (AID 757); settings: fluorescent GTP binding, at 10 µM, actives lie on both sides, 0 = cold GTP competed, 100 = untreated

Row | SMILES | GTP binding activity (% of control)
1 | Cn1c(SCC(=O)c2ccccc2)nnc1-c1ccco1 | inactive: 99%
2 | Cc1cc(C(=O)N=Nc2c(O)n(C(C)C)c3ccccc23)n[nH]1 | inactive: 93%
3 | CCC(Br)C(=O)Nc1ccc(OC)cc1 (stereo unspecified) | inactive: 100%
4 | CCCCCc1nc(-c2nonc2N)no1 | inconclusive: 95%
5 | O=C(CSc1nncs1)NC1CCCc2ccccc21 (stereo unspecified) | inconclusive: 96%
6 | CCNC(=S)N=Nc1c(O)[nH]c2ccc([N+](=O)[O-])cc12 | active: 58%
7 | Cc1ccc([N+](=O)[O-])cc1NC(=O)C(Sc1ccccc1)c1ccccc1 (stereo unspecified) | inactive: 101%
8 | COc1cc(Cl)c(C)cc1NC(=O)c1ccc(NS(=O)(=O)c2ccc(F)c(F)c2)cc1 | inconclusive: 87%
9 | CN1OC(CC(=O)O)N(c2ccc(Cl)cc2)C1=O (stereo unspecified) | inconclusive: 104%
10 | CSc1ncccc1C(=O)Nc1nc2ccc(F)cc2s1 | inconclusive: 95%
11 | COC(=O)CCc1sc(NC2CCCCC2)nc1-c1ccc(OC)cc1 | inconclusive: 102%
12 | Cc1onc(-c2ccccc2Cl)c1C(=O)N1CCN(Cc2ccc3c(c2)OCO3)CC1 | inconclusive: 99%
13 | Fc1cccc(Cl)c1CSc1ccc2nnc(-c3ccccn3)n2n1 | inconclusive: 90%
14 | O=C1c2ccccc2C(=O)N1CCCCN(C(=O)c1cc2ccccc2oc1=O)c1ccc(Cl)cc1 | active: 50%
15 | CCOC(=O)c1c(NC(=O)CSc2nc3ccccc3c(=O)n2-c2ccccc2)sc(C(C)=O)c1C | inconclusive: 106%
16 | CCOC(=O)c1c2c3c(c(Cl)ccc3[nH]c1=O)C(=O)c1ccccc1-2 | active: 45%
17 | Cc1ccc(CNC(=O)C2CCC(CNc3nc(=S)[nH]c4ccccc34)CC2)cc1 (stereo unspecified) | inconclusive: 91%
18 | CCCS(=O)(=O)NCCc1cc2c(C)ccc(C)c2[nH]c1=O | inconclusive: 92%
19 | CC12CCC(C/C1=N/OC(=O)c1cccc([N+](=O)[O-])c1)C2(C)C (stereo unspecified) | inactive: 99%
20 | CCCCN(C)C1CCN(C(=S)Nc2cccc(SC)c2)CC1 | inactive: 99%
21 | CC(C)Cn1c(SCC(=O)N2CCN(C(=O)c3ccco3)CC2)nc2ccccc2c1=O | inconclusive: 101%
22 | COc1cc2c(-c3ccc(O)cc3)nc3c(c(C)nn3-c3ccccc3)c2cc1OC | inactive: 99%
23 | COc1ccccc1OP(=O)(O)Oc1ccccc1OC | inconclusive: 101%
24 | O=C(COC(=O)C12CC3CC(CC(Br)(C3)C1)C2)Nc1cccnc1Cl | inactive: 100%
25 | O=C(NCc1cccnc1)/C(=C\c1ccc(-c2ccc(Cl)c(Cl)c2)o1)S(=O)(=O)c1ccccc1 | inactive: 102%
26 | COc1ccc(/C=N/NC(=O)CNC(=O)c2ccc(S(=O)(=O)N3CCCC3)cc2)c(OC)c1 | inactive: 98%
